PubChem BioAssay AID720708 (National Center for Advancing Translational Sciences (NCATS), 2013)
The campaign covered roughly 360,000 compounds. About 660 (0.18%) were called active. Inconclusive results, whose numbers are uncertain, are shown with a selection of clear calls. Calls follow the shape of the dose curve; as a rule, active = well fitted inhibition curve with a large enough effect; inconclusive = small, poorly fitted or top-dose-only effect; inactive = no such curve, though single readings can be large or run the other way. Potencies of inconclusive entries are left out as doubtful fits.

The molecules below were run against Rap guanine nucleotide exchange factor 4 (Homo sapiens) (UniProt Q8WZA2) (assay: qHTS for Antagonist of cAMP-regulated guanine nucleotide exchange factor 2 (EPAC2): primary screen). Conditions: EPAC2 GEF exchange of Rap1B-BODIPY-GDP, fluorescence; activity, negative = inhibition: at 114 µM (top of the series) unless noted.
UniProt Q8WZA2, sequence (Q8WZA2 whole entry, looked up): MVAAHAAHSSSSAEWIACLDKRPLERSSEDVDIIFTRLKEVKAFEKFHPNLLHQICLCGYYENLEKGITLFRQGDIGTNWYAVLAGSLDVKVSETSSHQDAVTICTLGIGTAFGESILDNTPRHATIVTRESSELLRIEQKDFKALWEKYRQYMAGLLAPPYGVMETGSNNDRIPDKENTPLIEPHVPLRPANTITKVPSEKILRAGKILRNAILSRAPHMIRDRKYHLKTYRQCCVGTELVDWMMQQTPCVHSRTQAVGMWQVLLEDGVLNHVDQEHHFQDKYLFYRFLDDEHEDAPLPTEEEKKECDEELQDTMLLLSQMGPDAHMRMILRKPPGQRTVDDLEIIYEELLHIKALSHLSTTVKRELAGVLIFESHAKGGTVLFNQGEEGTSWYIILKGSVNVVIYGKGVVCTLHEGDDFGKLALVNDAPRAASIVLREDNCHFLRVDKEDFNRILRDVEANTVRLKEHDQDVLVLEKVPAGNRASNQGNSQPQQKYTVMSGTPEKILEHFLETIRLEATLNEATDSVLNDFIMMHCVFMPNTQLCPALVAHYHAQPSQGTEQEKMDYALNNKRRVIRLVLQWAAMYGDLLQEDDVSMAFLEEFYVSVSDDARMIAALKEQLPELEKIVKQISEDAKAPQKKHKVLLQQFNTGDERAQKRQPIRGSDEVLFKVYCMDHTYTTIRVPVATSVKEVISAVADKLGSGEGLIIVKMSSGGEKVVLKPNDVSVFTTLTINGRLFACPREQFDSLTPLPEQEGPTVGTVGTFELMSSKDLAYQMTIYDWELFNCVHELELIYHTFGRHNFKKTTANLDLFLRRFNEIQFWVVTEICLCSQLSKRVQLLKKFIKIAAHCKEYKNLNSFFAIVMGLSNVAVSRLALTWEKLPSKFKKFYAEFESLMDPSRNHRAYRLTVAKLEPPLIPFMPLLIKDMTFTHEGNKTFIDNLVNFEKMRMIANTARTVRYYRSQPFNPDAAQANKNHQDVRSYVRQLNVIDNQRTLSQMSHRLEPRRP
Excerpt: In multi-cellular eukaryotic organisms, the effects of cAMP are transduced by two ubiquitously-expressed intracellular cAMP receptors, the classic protein kinase A/cAMP-dependent protein kinase (PKA/cAPK) and the more recently discovered exchange protein directly activated by cAMP/cAMP-regulated guanine nucleotide exchange factor (EPAC/cAMP-GEF). Both PKA and EPAC are ubiquitously expressed in all tissues, and an increase in intracellular cAMP levels will lead to the activation of both PKA and EPAC. Therefore, careful dissections of the individual role and relative contribution of EPAC and PKA within the overall cAMP signaling in various model systems are critical for further elucidating the mechanism of cAMP signaling. To date no EPAC-specific antagonists and agonist, as well as isoform-specific agonists have been reported, and developing EPAC-specific pharmacological probes to determine the physiological functions that EPAC play in the overall cAMP-mediated signaling remains a major challenge within the research field. Furthermore, identified regulators of EPAC may lead to new mechanism-based therapeutic strategies specifically targeting the EPAC / cAMP-signaling components as EPAC has been implicated to play important roles in major human pathological conditions such as diabetes, heart disease, and cancer.
This qHTS will be used to screen the Molecular Libraries Small Molecule Repository (MLSMR) as a concentration-titration series using the NCGC unique quantitative screening (qHTS) platform to find inhibitors for EPAC2. In addition, this assay will also be used as a counterscreen for the EPAC1 qHTS. This fluorescent based assay is developed and validated for EPAC2 that measures exchange using EPAC effector Rap1 complex with BODIPY-GDP, a GDP analog with a tethered fluorophores. Inhibitors are identified by monitoring the change in fluorescence signal as the exchanged free BODIPY-GDP has a reduced fluorescence compared to Rap1-bound BODIPY-GDP. Decrease in signal (inhibition) is the desired outcome for the EPAC2 antagonist while no activity in this assay is desired for the EPAC1 antagonist counterscreen.
NIH Chemical Genomics Center [NCGC]
NIH Molecular Libraries Probe Centers Network [MLPCN]
Assay Submitter (PI): Xiaodong Cheng, The University of Texas, Medical Branch
Briefly, three uL of reagents (100 nM EPAC2, 250 nM RAP1B-BODIPY-GDP, 50 uM GDP) were dispensed into a 1536-well Greiner black solid-bottom medium binding assay plate. Controls and test compounds (23 nL) were transferred to the plate via a Kalypsys pin tool equipped with a 1536-pin array. The plates were centrifuged at 1,000 rpm for 15 seconds followed by 5 minute incubation at room temperature. The assay plates were read at 5 minute intervals for 30 minutes in the ViewLux plate reader using 480nm excitation and 540nm emission filters. The results were normalized to the agonist positive control ATA and DMSO.
% is scaled to controls: 0 for no effect and ±100 for the full control effect; potency is read from the fitted curve at half-maximal effect; tags tell the direction and shape of the fitted curve.
Also: nearly all actives have a fitted effect of over 45% in size.

| SMILES | Potency | activity, negative = inhibition |
| --- | --- | --- |
| OC[C@@H]1[C@@H](c2ccccc2)C(c2ccc(F)cc2)=NN1c1ccccc1 | inconclusive [inhibitor, partial curve] |  |
| Cc1ccc(C)c(S(=O)(=O)NC(Cc2c[nH]c3ccccc23)C(=O)O)c1 (stereo not drawn) | inconclusive [inhibitor, partial curve] |  |
| O=S(=O)(Nc1ccccc1N1CCCCC1)c1ccccc1 | inconclusive [inhibitor, full curve] |  |
| O=C(Nc1ccccc1OCc1ccccc1)c1ccccc1Br | inconclusive [inhibitor, partial curve] |  |
| Oc1ccc2ccccc2c1/C=N/c1nc2c(s1)CCCC2 |  | inconclusive: -63.1% [inhibitor] |
| COc1ccc2[nH]c(-c3ccc(C)cc3)cc(=O)c2c1 |  | inactive: -0.993% |
| c1ccc(-n2ncc3c(N4CCN(CCOc5cccc6ccccc56)CC4)ncnc32)cc1 |  | inactive: -6.43% |
| Cc1ccc(NC(=O)C(C)OC(=O)/C=C/c2ccccc2)cc1S(=O)(=O)N1CCOCC1 (stereo not drawn) |  | inactive: -6.4% |
| CN(CC(=O)Nc1ccc(F)cc1Cl)Cc1cccs1 | inconclusive [inhibitor, partial curve] |  |
| CN(C)N1C(N)=C(C#N)C(c2ccc(Br)cc2)C2=C1CCCC2=O (stereo not drawn) | inconclusive [inhibitor, partial curve] |  |
| CCC(C)C1=CC(=Nc2c(C)n(C)n(-c3ccccc3)c2=O)C=C(C(C)CC)C1=O (stereo not drawn) |  | inactive: -15% |
| COc1ccc(OC)c(C(=O)c2coc3ccc(OC(C)=O)cc23)c1 | inconclusive [inhibitor, partial curve] |  |
| FC(F)C(F)(F)C(F)(F)C(F)(F)c1cc(-c2ccccc2)n[nH]1 | inconclusive [inhibitor, full curve, poor fit] |  |
| CSCC[C@H](NC(=O)N1CCn2c1nc1ccccc12)C(=O)NCc1ccc(C)cc1 | inconclusive [inhibitor, partial curve] |  |
| O=C(O)c1ccc(NC2=C/C(=N/S(=O)(=O)c3ccccc3)c3ccccc3C2=O)cc1 | inconclusive [inhibitor, partial curve, poor fit] |  |
| O=C(OC1CC2CC1[C@H]1CCCCN1C2=O)N1CCOCC1 (stereo partly drawn) |  | inactive: 0.539% |
| CC(C)C1C(=O)N(Cc2cn(CCC3OCCO3)nn2)CCS(=O)(=O)N1Cc1ccc(-c2ccccc2)cc1 (stereo not drawn) | inconclusive [inhibitor, full curve, poor fit] |  |
| Cc1ccc(C2=NN(C(=O)CCl)C(c3ccco3)C2)o1 (stereo not drawn) | inconclusive [inhibitor, partial curve] |  |
| OCCCc1cn(-c2ccccc2)c2ccccc12 | inconclusive [inhibitor, partial curve] |  |
| CC(Cl)C(=O)N1c2ccccc2CCc2ccccc21 (stereo not drawn) | inconclusive [inhibitor, single point] |  |
| Cc1ccc(-c2nc3ccc(Br)cn3c2Cc2ccccc2C(F)(F)F)cc1 | inconclusive [inhibitor, partial curve, poor fit] |  |
| CCCn1nc(C(=O)N2CCN(S(=O)(=O)c3ccc(C)c(C)c3)CC2)c2ccccc2c1=O |  | inconclusive: -16.8% [inhibitor] |
| O=C1c2ccccc2C(Nc2ccc(Cl)cn2)N1Cc1ccccc1 (stereo not drawn) | inconclusive [inhibitor, partial curve] |  |

| SMILES | Potency | activity, negative = inhibition |
| --- | --- | --- |
| O=C(COC(=O)C1CCN(c2ccc(C(F)(F)F)cn2)CC1)c1ccccc1 | inconclusive [inhibitor, single point] |  |
| N#Cc1c(SC(C(=O)O)c2ccccc2)nc2c(c1-c1cccs1)CCCC2 (stereo not drawn) | inconclusive [inhibitor, partial curve] |  |
| COc1cc(/C=C/c2ccc3cccc(O)c3n2)ccc1O |  | inactive: 7.25% |
| Clc1ccc(C(c2ccccc2Cl)C(Cl)Cl)cc1 (stereo not drawn) | inconclusive [inhibitor, single point] |  |
| COc1ccc(-c2nc3cnccn3c2Nc2ccc3c(c2)OCO3)cc1 | inconclusive [inhibitor, partial curve] |  |
| CC(=O)C[C@@H]1OC2CCCCC2N1S(=O)(=O)c1ccc(C)cc1 (stereo partly drawn) | inconclusive [inhibitor, partial curve, poor fit] |  |
| COc1ccc(N2CC(C(=O)N3CCN(C)CC3)CC2=O)cc1 (stereo not drawn) | inconclusive [inhibitor, single point] |  |
| CC1(C(=O)NC2CCc3ccccc32)CCN1CCc1ccccc1 (stereo not drawn) | inconclusive [inhibitor, partial curve] |  |
| Cn1c(Oc2ccc(F)cc2)c(C=O)c2ccccc21 | inconclusive [inhibitor, partial curve] |  |
| CCCNS(=O)(=O)c1ccc(CCC(=O)NCCc2ccc(OC)c(OC)c2)cc1 | inconclusive [inhibitor, single point] |  |
| C/C(=N\N(Cc1ccccc1)c1ccccc1)c1ccncc1 | inconclusive [inhibitor, partial curve] |  |
| CN1CC=C2C(C#N)=C(N)C(C#N)(C#N)C(CCc3ccccc3)C2C1 (stereo not drawn) | active: 44.7 µM |  |
| O=C(CC(=O)NC1CCCCC1)N/N=C/c1ccc(Cl)cc1 | inconclusive [inhibitor, single point] |  |
| COc1ccc(NC(=O)c2cccs2)c([N+](=O)[O-])c1 | inconclusive [inhibitor, partial curve] |  |
| COc1cc(C2CC(=O)Oc3cc(C)cc(C)c32)cc(OC)c1OC (stereo not drawn) | inconclusive [inhibitor, partial curve] |  |
| COc1cc(C2CC(c3cccs3)=NN2C(=O)CCl)ccc1OC(F)F (stereo not drawn) | inconclusive [inhibitor, partial curve] |  |
| COc1ccccc1-c1ncn(Cc2cccc(-c3ccccc3)c2)c1-c1cc(C)cc(C)c1 | inconclusive [inhibitor, partial curve] |  |
| CC(C)OC1(c2ccccc2)OC(=O)c2ccccc21 (stereo not drawn) | active: 35.5 µM |  |
| CCCCNCC1C(Oc2ccc(Cl)cc2)C(=O)N1c1ccccc1C (stereo not drawn) | inconclusive [inhibitor, partial curve, poor fit] |  |
| CCN(Cc1ccccc1)S(=O)(=O)c1ccc(F)cc1 | inconclusive [inhibitor, single point] |  |
| C[C@H](CO)N1C[C@H](C)[C@@H](CN(C)C(=O)Nc2ccc(C(F)(F)F)cc2)Oc2c(NC(=O)Cc3ccccc3)cccc2C1=O |  | inactive: -11.3% |
| CCc1ccc(C(=O)Nc2cc3c(cc2Cl)OCCCO3)cc1 |  | inactive: 9.69% |
| O=c1ccc(-c2ccccc2)nn1Cc1ccccc1 | inconclusive [inhibitor, partial curve] |  |

| SMILES | Potency | activity, negative = inhibition |
| --- | --- | --- |
| O=C(NCc1ccccn1)c1ccccc1OCc1ccc(Cl)cc1Cl | inconclusive [inhibitor, partial curve] |  |
| COc1cc(/C=N/NC(N)=S)ccc1OCc1ccc(C)cc1 | inconclusive [inhibitor, partial curve] |  |
| Cc1ccc([N+](=O)[O-])cc1S(=O)(=O)NCC1COc2ccccc2O1 (stereo not drawn) | inconclusive [inhibitor, full curve, poor fit] |  |
| COCCn1c(N)c(C(=O)NCC2CCCO2)c2nc3ccccc3nc21 (stereo not drawn) |  | inactive: -27.2% |
| Cn1nc(C(C)(C)C)cc1C(=O)N1CCCCC1c1cc(C(=O)Nc2cccc3c2CCCC3)no1 (stereo not drawn) | inconclusive [inhibitor, full curve, poor fit] |  |
| Cc1ccc2c(CN(Cc3ccccc3)Cc3ccccc3)cc(=O)oc2c1 | inconclusive [inhibitor, full curve, poor fit] |  |
| Cc1ccc(S(=O)(=O)Oc2ccc(/C=N/N=C3/NC(=O)C(CC(=O)O)S3)cc2)cc1 (stereo not drawn) | inconclusive [inhibitor, partial curve] |  |
| O=C(O)CN1C(=O)/C(=C\c2cccc(OCc3ccc(F)cc3)c2)SC1=S | inconclusive [inhibitor, partial curve] |  |
| Cn1c(SCC(=O)Nc2cccc(C(=O)O)c2)nnc1-c1cc2cc(Br)ccc2o1 |  | inactive: -8.18% |
| Cc1ccc(N(C(=O)c2ccco2)C(C(=O)NC2CCCC2)c2ccco2)c(C)c1 (stereo not drawn) | inconclusive [inhibitor, partial curve] |  |
| CCCCCCCn1c(=O)c(C(=O)OC)c(N)c2ccccc21 | inconclusive [inhibitor, full curve] |  |
| COc1ccc(-c2cc(=O)c3cc(OC)ccc3[nH]2)cc1 |  | inactive: 12.1% |
| CCCCn1c(NC(=O)CC)c(C#N)c2nc3ccccc3nc21 |  | inactive: 3.12% |
| Nc1nc(SCC(=O)Nc2cc(Cl)ccc2Cl)n[nH]1 |  | inactive: 2.04% |
| Cc1cccc(/C=C/C(=O)c2ccc([N+](=O)[O-])o2)c1 |  | inactive: -1.73% |
| CCc1nc2ccccc2n1Cc1ccccc1F | inconclusive [inhibitor, partial curve] |  |
| S=c1[nH]cc(Oc2ccc(Cl)cc2Cl)c(=S)[nH]1 | inconclusive [inhibitor, partial curve] |  |
| COc1ccc(-c2nc3c4ccccc4ccn3c2Cc2ccccc2C(F)(F)F)cc1OC |  | inactive: -4.21% |
| Cc1ccc(C(=O)NN2C(=O)/C(=C/c3cccn3C)SC2=S)cc1 |  | inactive: -0.794% |
| Cc1ccc(NS(=O)(=O)c2cccs2)cc1S(=O)(=O)N1CCCCCC1 | inconclusive [inhibitor, single point] |  |
| CC1=NN(c2ccccc2)C(=O)/C1=C\c1ccc(Oc2ccc([N+](=O)[O-])cc2[N+](=O)[O-])cc1 |  | inactive: 2.43% |
| Cc1ccc(-n2c(SCC(=O)O)nc3c(sc(=S)n3-c3ccc(C)c(C)c3)c2=O)cc1 | inconclusive [inhibitor, partial curve] |  |
